Experimental data: the supplement of paper PMC12217912
This is one part of the list. Sequences were assembled here from the parent chain. Inactive controls read about 0.05.

B1: TEV protease; numbered along this chain (parent)
chain: MGESLFKGPRDYNPISSSICHLTNESDGHTTSLYGIGFGPFIITNKHLFRRNNGTLVVQSLHGVFKVKDTTTLQQHLVDGRDMIIIRMPKDFPPFPQKLKFREPQREERICLVTTNFQTKSMSSMVSDTSCTFPSGDGIFWKHWIQTKDGQCGSPLVSTRDGFIVGIHSASNFTNTNNYFTSVPKNFMELLTNQEAQQWVSGWRLNADSVLWGGHKVFMVKPEEPFQPVKEATQL

Variants of: B1
Test: raw area under fraction-flipped curve 0-4 h after induction (AUC4h, not background-subtracted), DNA-recorder readout of cleavage of the substrate (dimensionless); higher = more cleavage of the substrate by the protease variant
Conditions: temperature: 34 °C; time window: 0-4 h after rhamnose induction
Procedure: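 In vivo DNA recorder in E. coli TOP10(DE3) ΔrhaA at 34 °C. Each TEVp single-site mutant (parent TEVp 0) is paired with a single-site variant of the 7-mer TEVs (canonical ENLYFQ|S). The substrate sits between flexible linkers in a Bxb1-sfGFP-TEVs-SsrA fusion, so cleavage stabilises Bxb1 and speeds flipping of a recombination array, read by NGS. The value is the raw area under the fraction-flipped curve over 0-4 h after rhamnose induction (AUC4h), with ≥20 reads per time point. It is not background-subtracted; inactive controls average about 0.047.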
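Also: Bxb1 expression induced with 0.2% (w/v) L-rhamnose at OD600 near 0.5, cultures sampled hourly, flipped fraction per protease–substrate barcode pair counted by paired-end Illumina sequencing.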

Variant | area with substrate CNLYFQS | area with substrate DNLYFQS | area with substrate FNLYFQS | area with substrate GNLYFQS | area with substrate HNLYFQS | area with substrate INLYFQS | area with substrate LNLYFQS | area with substrate NNLYFQS | area with substrate PNLYFQS | area with substrate TNLYFQS | area with substrate VNLYFQS | area with substrate WNLYFQS | area with substrate YNLYFQS | area with substrate MNLYFQS | area with substrate SNLYFQS | area with substrate QNLYFQS | area with substrate KNLYFQS
MGESLFKGPRDYNPISSSICHLTNESDGHTTSLYGIGFGPFIITNKHLFRRNNGTLVVQSLHGVFKVKDTTTLQQHLVDGRDMIIIRMPKDFPPFPQKLKFREPQREERICLVTTNFQTKSMSSMVSDTSCTFPSGDGIFWKHWIQTKDGECGSPLVSTRDGFIVGIHSASNFTNTNNYFTSVPKNFMELLTNQEAQQWVSGWRLNADSVLWGGHKVFMVKPEEPFQPVKEATQL [Q151E] | 0.0709 | 0.09 | 0.0633 | 0.0605 | 0.0614 | 0.0642 | 0.0647 | 0.0619 | 0.0647 | 0.0521 | 0.0934 | 0.0491 | 0.0576 |  |  |  | 
MGESLFKGPRDYNPISSSICHLTNESDGHTTSLYGIGFGPFIITNKHLFRRNNGTLVVQSLHGVFKVKDTTTLQQHLVDGRDMIIIRMPKDFPPFPQKLKFREPQREERICLVTTNFQTKSMSSMVSDTSCTFPSGDGIFWLHWIQTKDGQCGSPLVSTRDGFIVGIHSASNFTNTNNYFTSVPKNFMELLTNQEAQQWVSGWRLNADSVLWGGHKVFMVKPEEPFQPVKEATQL [K142L] | 0.0784 | 0.117 | 0.0777 | 0.0721 | 0.073 | 0.0729 | 0.0869 | 0.0748 | 0.0665 | 0.0547 |  | 0.0583 |  | 0.0692 | 0.0695 |  | 
MGESLFKGPRDYNPISSSICHLTNESDGHTTSLYGIGFGPFIITNKHLFRRNNGTLVVQSLHGVFKVKDTTTLQQHLVDGRDMIIIRMPKDFPPFPQKLKFREPQREERICLVTTNFQTKSMSSMVSDTSCTFPSGDGIFWKHWIQTRDGQCGSPLVSTRDGFIVGIHSASNFTNTNNYFTSVPKNFMELLTNQEAQQWVSGWRLNADSVLWGGHKVFMVKPEEPFQPVKEATQL [K148R] | 0.0625 | 0.0657 | 0.0603 | 0.053 | 0.0697 |  |  | 0.0611 | 0.0698 | 0.0697 |  | 0.0535 | 0.0584 | 0.0927 |  | 0.0661 | 
MGESLFKGPRDYNPISSSICHLTNESDGHTTSLYGIGFGPFIITNKHLFRRNNGTLVVQSLHGVFKVKDTTTLQQHLVDGRDMIIIRMPKDFPPFPQKLKFREPQREERICLVTTNFQTKSMSSMVSDTSCTFPSGDGIFWKHWIQTQDGQCGSPLVSTRDGFIVGIHSASNFTNTNNYFTSVPKNFMELLTNQEAQQWVSGWRLNADSVLWGGHKVFMVKPEEPFQPVKEATQL [K148Q] | 0.0692 | 0.0879 |  | 0.0693 | 0.0604 | 0.0713 | 0.0988 | 0.0754 | 0.0649 | 0.0578 |  | 0.0581 |  | 0.0414 | 0.0661 | 0.0655 | 0.0835
MGESLFKGPRDYNPISSSICHLTNESDGHTTSLYGIGFGPFIITNKHLFRRNNGTLVVQSLHGVFKVKDTTTLQQHLVDGRDMIIIRMPKDFPPFPQKLKFREPQREERICLVTTNFQTKSMSSMVSDTSCTFPSGDGIFWKHWIQTEDGQCGSPLVSTRDGFIVGIHSASNFTNTNNYFTSVPKNFMELLTNQEAQQWVSGWRLNADSVLWGGHKVFMVKPEEPFQPVKEATQL [K148E] | 0.0681 | 0.0804 |  |  | 0.0641 | 0.0653 | 0.0642 | 0.0662 | 0.0611 | 0.0623 | 0.0723 | 0.0532 | 0.0683 | 0.0684 | 0.0653 | 0.0597 | 
MGESLFKGPRDYNPISSSICHLTNESDGHTTSLYGIGFGPFIITNKHLFRRNNGTLVVQSLHGVFKVKDTTTLQQHLVDGRDMIIIRMPKDFPPFPQKLKFREPQREERICLVTTNFQTKSMSSMVSDTSCTFPSGDGIFWKHWIQTKYGQCGSPLVSTRDGFIVGIHSASNFTNTNNYFTSVPKNFMELLTNQEAQQWVSGWRLNADSVLWGGHKVFMVKPEEPFQPVKEATQL [D149Y] | 0.0678 | 0.072 |  | 0.0617 | 0.0489 | 0.0575 | 0.0626 | 0.0531 | 0.0607 | 0.0451 | 0.0525 | 0.057 |  | 0.07 | 0.0677 |  | 0.0688
MGESLFKGPRDYNPISSSICHLTNESDGHTTSLYGIGFGPFIITNKHLFRRNNGTLVVQSLHGVFKVKDTTTLQQHLVDGRDMIIIRMPKDFPPFPQKLKFREPQREERICLVTTNFQTKSMSSMVSDTSCTFPSGDGIFWKHWIQQKDGQCGSPLVSTRDGFIVGIHSASNFTNTNNYFTSVPKNFMELLTNQEAQQWVSGWRLNADSVLWGGHKVFMVKPEEPFQPVKEATQL [T147Q] | 0.0618 | 0.0563 | 0.0648 |  | 0.0648 |  | 0.059 |  | 0.0572 | 0.07 |  | 0.076 |  | 0.0605 |  |  | 0.0685
MGESLFKGPRDYNPISSSICHLTNESDGHTTSLYGIGFGPFIITNKHLFRRNNGTLVVQSLHGVFKVKDTTTLQQHLVDGRDMIIIRMPKDFPPFPQKLKFREPQREERICLVTTNFQTKSMSSMVSDTSCTFPSGDGIFWKHWIQTKDGQCGWPLVSTRDGFIVGIHSASNFTNTNNYFTSVPKNFMELLTNQEAQQWVSGWRLNADSVLWGGHKVFMVKPEEPFQPVKEATQL [S154W] | 0.0614 | 0.0574 |  |  | 0.0543 |  | 0.064 | 0.0654 | 0.0869 | 0.0633 |  | 0.0629 | 0.058 | 0.0595 | 0.0591 |  | 0.0494
MGESLFKGPRDYNPISSSICHLTNESDGHTTSLYGIGFGPFIITNKHLFRRNNGTLVVQSLHGVFKVKDTTTLQQHLVDGRDMIIIRMPKDFPPFPQKLKFREPQREERICLVTTNFQTKSMSSMVSDTSCTFPSGDGIFWKHWIQTKDGQCGHPLVSTRDGFIVGIHSASNFTNTNNYFTSVPKNFMELLTNQEAQQWVSGWRLNADSVLWGGHKVFMVKPEEPFQPVKEATQL [S154H] | 0.0574 | 0.0582 | 0.0617 |  | 0.0651 |  |  | 0.0726 | 0.052 | 0.0634 | 0.0532 | 0.0623 | 0.0547 | 0.0657 | 0.0672 | 0.0386 | 0.0556
